Measured values: PubChem BioAssay AID1347070 (National Center for Advancing Translational Sciences (NCATS), 2019)
Among all 94,000 compounds or so, about 20 (0.02%) were called active. Inconclusive means that the source gave no clear call. Such entries were picked first, then a sample of the others. The call rests on the fitted dose curve; in most records, active means well fitted activation curve with a large enough effect; inconclusive means small, poorly fitted or top-dose-only effect; inactive means flat fitted curve, though single readings scatter. No potency is given beside an inconclusive call; the fits are too rough.

Test: qHTS of alpha-syn Inhibitors: NCGC Sytravon Library Screen; on growth rescue (activation): 0% is about no effect
Settings: S. cerevisiae alpha-synuclein toxicity rescue, BacTiter-Glo growth, 24 h; growth rescue (activation): at 46.1 µM (top of the series)
In short: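 Growth restoration measured by BacTiter-Glo luminescence after 24 hr at 30 deg C; alpha-synuclein yeast, raffinose-pregrown to mid-log, were added at OD600=0.02 in galactose medium onto pinned compounds.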
Potency means the concentration at half of the fitted maximal effect; tags describe the fitted curve by direction and shape.

| SMILES | Potency | growth rescue (activation) |
| --- | --- | --- |
| O=C(NCc1ccc(Cl)cc1)C(=O)NCC1CCCN1S(=O)(=O)c1cccs1 (configuration not stated) | inactive | – |
| CCc1nn2c(=O)c(S(=O)(=O)Nc3ccc(C)cc3C)c(C)nc2s1 | inconclusive [activator, single point] | – |
| CCOc1ccccc1N(CC)C(=O)Cn1ncc2c1-c1ccccc1OC2 | inconclusive [activator, single point] | – |
| c1ccc(Nc2c(-c3ccccc3)nc3ncccn23)cc1 | inactive | – |
| O=S(=O)(c1ccc(Cl)c(NC(=S)Nc2cccc(O)c2)c1)N1CCOCC1 | – | inconclusive: 200% [activator] |
| Cc1ccc(NC(=O)c2ccc(F)c(S(=O)(=O)NCCc3ccccc3)c2)cc1F | inconclusive [activator, single point] | – |
| CCOc1ccc(CCNC(=O)c2cc3n(n2)CCCN(Cc2ccc(C)cc2)C3=O)cc1OCC | inactive | – |
| O=C1N/C(=C/c2cccs2)C(=O)N1Cc1ccc(F)cc1 | inactive | – |
| O=C(Cc1ccccc1)NNC1CC(=O)N(c2ccc(Br)cc2)C1=O (configuration not stated) | inactive | – |
| COc1cccc(-c2nc3c(C#N)c[nH]n3c2NC2CCCCC2)c1 | inactive | – |
| CCCSC1=NC2(CCN(C(=O)NC3CCCCC3)CC2)N=C1c1ccc(OC)cc1 | inconclusive [activator, single point] | – |
| O=C(NCc1ccccc1Cl)c1ccc2c(c1)ncn2-c1cccc(F)c1 | inconclusive [activator, single point] | – |
| O=C(Cn1cnc2onc(-c3ccc(F)cc3)c2c1=O)N1CCN(c2ccccc2F)CC1 | inconclusive [activator, single point] | – |
| Nc1nn(-c2ccccc2)nc1C(=O)OCc1ccccc1Br | inactive | – |
| Cc1ccc(C(=O)NCC(=O)OCc2cc(=O)n3nc(C4CC4)sc3n2)cc1 | inconclusive [activator, single point] | – |
| COc1cc(/C=C/c2nc3cc(Cl)ccc3c(=O)n2-c2ccc(C)cc2C)cc(OC)c1OC | inactive | – |
| O=C(CCSCc1cccc(Cl)c1)NCc1ccc(F)cc1Cl | active: 28.2 µM | – |
| O=C(O)CC/C(=C\c1ccc2c(c1)OCO2)c1nc2ccccc2s1 | – | inconclusive: 32.1% [activator] |
| COc1ccc(NC(=S)N2CCC(NC(=O)C3CCCCC3)CC2)cc1 | inactive | – |
| CSCCC(NS(=O)(=O)c1ccc2c(c1)oc(=O)n2C)C(=O)Nc1ccc(Cl)cc1 (configuration not stated) | inactive | – |
| COc1ccccc1N1CCN(C(=O)C(CCSC)NS(=O)(=O)c2ccc3c(c2)oc(=O)n3C)CC1 (configuration not stated) | inactive | – |
| Cc1ccc2occ(CC(=O)N(Cc3ccccc3Cl)C3CCS(=O)(=O)C3)c2c1 (configuration not stated) | – | inconclusive: 33.1% [activator] |
| CCCOc1cccc(C(=O)Nc2cccc(-c3nc4ncccc4o3)c2C)c1 | inactive | – |
| COC(=O)c1sccc1S(=O)(=O)N1CCN(c2cc(Cl)ccc2C)CC1 | inconclusive [activator, single point] | – |

| SMILES | Potency | growth rescue (activation) |
| --- | --- | --- |
| Cc1ccc(S(=O)(=O)N(Cc2nc(-c3cccc(C)c3)no2)C2CCCCC2)cc1 | inactive | – |
| CCC(Oc1ccccc1F)C(=O)N1CCC(c2nc3ccccc3s2)CC1 (configuration not stated) | inconclusive [activator, single point] | – |
| Cc1ccccc1C(=O)NC1(C(F)(F)F)N=C(c2ccccc2)N(C2CCCCC2)C1=O (configuration not stated) | inactive | – |
| Cc1oc(-c2ccc(Cl)cc2)nc1CS(=O)CC(=O)N1CCN(c2cccc(C(F)(F)F)c2)CC1 (configuration not stated) | inconclusive [activator, single point] | – |
| O=C(C1COc2ccccc2O1)N(Cc1cccnc1)c1nc2ccc(Cl)cc2s1 (configuration not stated) | inconclusive [activator, single point] | – |
| CCOC(=O)N1CCN(C(=O)CN(c2cccc(Cl)c2)S(=O)(=O)c2ccccc2)CC1 | inactive | – |
| CCOc1ccc(S(=O)(=O)Nc2ccc3oc(C)c(C(=O)OC(C)C)c3c2)cc1 | inconclusive [activator, single point] | – |
| CCOc1ccccc1-n1nnc(-c2nc(-c3ccccc3C)no2)c1C | inactive | – |
| CC(C)C(=O)NCC1(N(C)C)CCCCC1 | inconclusive [activator, single point] | – |
| N#Cc1ccc(C(=O)NCc2ccc3c(c2)CCN3C(=O)c2ccc(F)cc2)cc1 | inconclusive [activator, single point] | – |
| Cc1ccc(NC(=O)C2CCCN2S(=O)(=O)c2cccc3nsnc23)c(C)c1 (configuration not stated) | inconclusive [activator, single point] | – |
| Cc1ccc(NC2=C(CC(=O)O)C(c3ccc(F)cc3)N(c3ccc(C)cc3)C2=O)cc1 (configuration not stated) | inconclusive [activator, single point] | – |
| CCC/C=C/c1ccc(CN2C(CC(C)C)C(=O)N(Cc3cn(CCC4OCCCO4)nn3)CCS2(=O)=O)cc1 (configuration not stated) | – | inconclusive: 196% [activator] |
| COc1ccc(OC)c2sc(N3CCN(C(=O)c4ccc5c(c4)CCCC5)CC3)nc12 | inconclusive [activator, single point] | – |
| COc1ccc(-c2onc(C)c2C)cc1S(=O)(=O)NCC(C)c1ccccc1 (configuration not stated) | inconclusive [activator, single point] | – |
| Cc1cc(NC(=O)COCc2cc(-c3ccc(F)cc3)on2)ccc1Br | inactive | – |
| COc1ccc(OC)c(CNS(=O)(=O)c2ccc3[nH]c4c(c3c2)CCCCC4)c1 | inconclusive [activator, single point] | – |
| COc1ccc(-n2ncc3c2ncn2nc(COc4ccc(Cl)cc4)nc32)cc1 | inactive | – |
| COc1cccc(C(=O)Nc2ccc(-n3nncc3-c3ccc(Br)cc3)cc2)c1OC | inconclusive [activator, single point] | – |
| CC(=O)c1cccc(NCc2ccccc2-c2nnc(-c3ccccc3)o2)c1 | inactive | – |
| O=C(CSc1nc(-c2ccccc2)[nH]c1-c1ccccc1)Nc1ccc2c(c1)OCO2 | inactive | – |
| Fc1ccc(Nc2nc3nonc3nc2Nc2cccc(C(F)(F)F)c2)cc1 | inactive | – |
| CC(Oc1cc(F)ccc1[N+](=O)[O-])C(=O)Nc1ccc(S(=O)(=O)N2CCCC2)cc1 (configuration not stated) | – | inconclusive: 176% [activator] |
